Reference: PMC4336329 (PLoS ONE, 2015)
Screen size: about 310,000 compounds; about 14,000 (4.5%) showed an effect of 50% or more. The effect is printed as a negative number. The list shows a part of the results.

What follows are compounds tested against human ether-à-go-go-related gene (hERG) potassium channel (human, UniProt Q12809) (assay: primary screen, population patch clamp on CHO cells stably expressing hERG).
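Further: peak tail current of the secondary pulse compared with the same well before compound.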

human ether-à-go-go-related gene (hERG) potassium channel, sequence (Q12809 whole entry, looked up): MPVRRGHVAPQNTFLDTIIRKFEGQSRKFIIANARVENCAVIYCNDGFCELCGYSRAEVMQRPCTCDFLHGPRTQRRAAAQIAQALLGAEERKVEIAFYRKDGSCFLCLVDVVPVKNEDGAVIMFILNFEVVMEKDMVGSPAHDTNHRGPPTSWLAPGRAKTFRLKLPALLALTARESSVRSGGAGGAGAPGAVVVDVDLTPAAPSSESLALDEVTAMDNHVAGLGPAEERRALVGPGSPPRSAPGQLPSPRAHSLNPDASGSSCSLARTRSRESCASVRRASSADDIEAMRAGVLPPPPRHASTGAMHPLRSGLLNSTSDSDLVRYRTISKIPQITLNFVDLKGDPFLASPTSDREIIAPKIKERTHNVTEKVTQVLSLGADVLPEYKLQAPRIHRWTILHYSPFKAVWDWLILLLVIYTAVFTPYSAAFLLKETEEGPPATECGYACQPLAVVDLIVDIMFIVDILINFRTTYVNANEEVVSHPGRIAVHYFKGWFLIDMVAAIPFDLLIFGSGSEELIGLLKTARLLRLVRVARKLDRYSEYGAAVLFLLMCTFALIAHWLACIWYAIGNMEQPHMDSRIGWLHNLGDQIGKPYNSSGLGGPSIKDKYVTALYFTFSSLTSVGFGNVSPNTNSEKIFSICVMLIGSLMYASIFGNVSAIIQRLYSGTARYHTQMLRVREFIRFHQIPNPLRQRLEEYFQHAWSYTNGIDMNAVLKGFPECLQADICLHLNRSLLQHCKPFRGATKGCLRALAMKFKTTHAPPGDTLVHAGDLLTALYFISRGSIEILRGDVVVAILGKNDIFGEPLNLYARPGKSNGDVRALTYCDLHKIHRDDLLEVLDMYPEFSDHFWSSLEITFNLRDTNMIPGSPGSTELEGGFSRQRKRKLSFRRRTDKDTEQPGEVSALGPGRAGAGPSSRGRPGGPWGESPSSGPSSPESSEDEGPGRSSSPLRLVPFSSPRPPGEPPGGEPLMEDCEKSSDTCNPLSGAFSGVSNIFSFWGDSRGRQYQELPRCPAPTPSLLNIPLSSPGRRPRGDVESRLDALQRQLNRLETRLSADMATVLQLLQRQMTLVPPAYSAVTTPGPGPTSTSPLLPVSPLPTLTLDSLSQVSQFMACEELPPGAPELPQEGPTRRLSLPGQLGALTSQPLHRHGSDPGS

| SMILES | hERG current change (%, negative = inhibition) at 10uM |
| --- | --- |
| O=C(COC(=O)c1c[nH]c(=O)[nH]c1=O)Nc1ccccc1 | 17.8% |
| CC(C)(C)P(=O)(c1ccncc1)N1CCCC1 (stereo not drawn) | 2.14% |
| O=C(c1cc2nc(-c3ccco3)cc(C(F)(F)F)n2n1)N1CCCc2ccccc21 | 14.4% |
| CCC(C(=O)NCCCN1CC(C)CC(C)C1)n1nc(C)c2sc3ccccc3c2c1=O (stereo not drawn) | -37% |
| COc1ccc(N2C(=O)C(Cc3ccccc3)NC2=S)cc1 (stereo not drawn) | 13.7% |
| CCOC(=O)CN1CC23C=CC(O2)C(C(=O)Nc2ccc(OC)cc2OC)C3C1=O (stereo not drawn) | 15.9% |
| Cc1c(NC(=O)/C=C/c2cccs2)c(=O)n(-c2ccccc2)n1C | -1.38% |
| COc1cc(N2C(=O)CC(=O)NC2=O)cc(OC)c1OC | 17.1% |
| CCOC(=O)c1ccc(NC(=O)CSCCC(=O)O)cc1 | 16.4% |
| CCN(CC)CCC(c1ccc(N(C)C)cc1)c1c(O)cc(OC)cc1OC (stereo not drawn) | -0.431% |
| O=C(NCc1ccc(F)cc1Cl)C1CCN(S(=O)(=O)N2CCC3(CC2)OCCO3)CC1 | -13.9% |
| O=C(Cc1ccc2c(c1)CCCC2)Nc1ccccc1Br | 8.48% |
| COC(=O)C1(CCSC)NC(c2ccc(O)c(OC)c2)C2C(=O)N(c3ccc(C)cc3)C(=O)C21 (stereo not drawn) | 0.388% |
| O=C(CCSCc1ccc(Cl)cc1)NCc1ccco1 | -13.5% |
| CC(C)=CC(=O)O[C@@H]1Cc2cc3ccc(=O)oc3cc2OC1(C)C | -16.5% |
| CCCC(C(=O)NCC1CCCO1)N(C(=O)CNS(=O)(=O)c1ccccc1)c1ccc(F)cc1 (stereo not drawn) | 2.7% |
| CCN(CC)CCCN(CC(=O)N(C)Cc1ccccc1)C(=O)c1ccc([N+](=O)[O-])cc1.Cl.O | 3.8% |
| CCOC(=O)C1CCN(C(=O)COC(=O)c2nc3nc(C)cc(C)n3n2)CC1 | 2.52% |
| COc1ccc(S(=O)(=O)N2CCCCCC2)cc1C(=O)Nc1cccc(C)n1 | 11.9% |
| O=C(Nc1nc(-c2ccccc2)cs1)c1ccccc1F | 20.2% |
| COc1ccccc1NC(=O)C(Sc1ccccc1)c1ccccc1 (stereo not drawn) | -6.32% |
| C=CSc1sc(Cl)c(N(CC)CC)c1[N+](=O)[O-] | 13.4% |

| SMILES | hERG current change (%, negative = inhibition) at 10uM |
| --- | --- |
| COc1ccc(-n2c(C)cc(C(=O)COC(=O)Cn3cnc4ccccc43)c2C)cc1 | -0.741% |
| O=C(N/N=C/c1ccc2c(c1)OCO2)c1cccs1 | 11.2% |
| CN(C)C/C=C(/c1ccc(Br)cc1)c1cccnc1.Cl | -71.5% |
| CSc1nccc(-c2cc(Cl)sc2Cl)n1 | 6.21% |
| Cc1cccc(Oc2nc(-c3cccc([N+](=O)[O-])c3)nc3ccccc23)c1C | -17.9% |
| O=C(Nc1ccc2c(c1)OCO2)c1ccncc1 | -0.833% |
| COc1ccc(N2CC(C(=O)Nc3cccc(S(=O)(=O)N4CCCC4)c3)CC2=O)c(OC)c1 (stereo not drawn) | -1.26% |
| CC1(C(=O)NNC(=O)c2cccc([N+](=O)[O-])c2)CC1(Br)Br (stereo not drawn) | -3.22% |
| CC(=O)c1ccc2c(c1)OCCOCCOCCOCCOCCO2 | -62.4% |
| Cc1cccc(C(=O)NCC(=O)NCC(c2cccs2)N2CCOCC2)c1 (stereo not drawn) | 0.304% |
| CCOc1ccc(C(=O)Cc2cc3cccc(OC)c3oc2=O)cc1 | 21.1% |
| CCOc1ccc(CNC(=O)C2CCCN(S(C)(=O)=O)C2)cc1OC (stereo not drawn) | -1.14% |
| COc1ccc(C2C(C(=O)Nc3cccc(C)n3)c3ccccc3C(=O)N2C)cc1 (stereo not drawn) | 2.31% |
| O=C(CSc1ncccc1C(=O)O)c1ccccc1 | 6.47% |
| CCn1c(=O)cc(SCC(=O)NCCN2CCN(Cc3ccccc3)CC2)c2ccccc21 | -49.4% |
| COc1ccc(-c2cn3cc(Br)cnc3n2)cc1 | 23% |
| N#C/C(=C/c1ccc(-c2ccc(Br)cc2)o1)C(=O)NC1CCCCC1 | 2.71% |
| CCOC(=O)Cc1csc(NC(=O)c2ccc(S(=O)(=O)N3CCCC3)cc2)n1 | -20.2% |
| O=C(Cc1ccc([N+](=O)[O-])cc1)Nc1ccc2c(c1)CCC2 | 7.99% |
| CCOc1ccc(C(=O)O[C@H]2[C@H](Cc3ccccc3)NS(=O)(=O)[C@H]3C[C@@H]4C=C[C@]23O4)cc1 | 11.5% |
| COc1ccccc1Oc1ccc(S(=O)(=O)N2CCCCC2C)cc1 (stereo not drawn) | -36.2% |
| O=C(CN1CCN(c2ccccc2O)CC1)Nc1cc([N+](=O)[O-])ccc1Cl | -17.3% |

| SMILES | hERG current change (%, negative = inhibition) at 10uM |
| --- | --- |
| COc1ccc(C)cc1NC(=O)NC1CCCc2ccccc21 (stereo not drawn) | 8.57% |
| COc1cc(Nc2c3ccccc3nc3ccccc23)cc(OC)c1OC | -63.9% |
| Cc1cccc(NC(=O)C2CCN(S(=O)(=O)c3ccc4c(c3)NC(=O)CO4)CC2)c1 | 7.7% |
| Cc1ccc(S(=O)(=O)Nc2cccc(-n3cnnn3)c2)cc1 | -1.73% |
| Cc1oc(-c2cccc(Cl)c2)nc1CN1CCC(C(=O)NCc2cccnc2)CC1 | -60.9% |
| Cc1ccc(C(=O)N/C(=C\c2cccc([N+](=O)[O-])c2)C(=O)Nc2cccc(C(=O)O)c2)cc1 | 15.2% |
| COCC(C)NC(=O)c1ccccc1[N+](=O)[O-] (stereo not drawn) | 24.8% |
| CCOC(=O)c1ccc(S(=O)(=O)NNS(=O)(=O)c2ccc(C)cc2)cc1 | 20.2% |
| O=C(COC(=O)/C=C/c1cccc(C(F)(F)F)c1)NCc1ccco1 | 13.5% |
| CC1(C)Cc2c(cnn2-c2ccc(F)cc2)C(NC(=O)C2CCC2)C1 (stereo not drawn) | -79.2% |
| O=C(Nc1ccc(Oc2cccnc2)cc1)C1CCN(Cc2cccc(Cl)c2)CC1 | -52.8% |
| O=S(=O)(c1ccccc1)N1CCC2(CC1)OCCO2 | 22.6% |
| COC(=O)C1=C(N)Oc2cc(C)n(C)c(=O)c2C1c1ccc(Cl)cc1 (stereo not drawn) | 6.7% |
| COC(=O)C1C(O)C(C)C(O)C(C)(O)/C=C\C=C(/C)C(=O)Nc2c(C)c(OC(C)=O)c3c(c2O)C(=O)C(C)=C2OCOC(=C23)/C(C)=C/C(C)(O)C(O)C(C)C1O (stereo not drawn) | 9.52% |
| COc1ccc(NC(=O)c2ccccc2O)c(OC)c1 | -7.13% |
| CC(=O)Nc1ccc(-c2cc(NC(C)=O)n(-c3ccccc3)n2)cc1 | 12.1% |
| CCOC(=O)N1CCN(c2c(NCCCN(CC)Cc3ccccc3)c(=O)c2=O)CC1 | 16.8% |
| CCCNC(=S)Nc1ccc(Nc2ccccc2)cc1 | -15% |
| CCN(CC)C(=O)Oc1ccc2c(=O)c(-c3ccc(OC)cc3)coc2c1 | 15.2% |
| CC(=O)Nc1ccc(OC(=O)N(C)c2ccccc2)cc1 | 11% |
| COCCN(CCOC)Cc1c(O)ccc2c1O/C(=C\c1ccco1)C2=O | 10.8% |
| COc1cc(S(=O)(=O)NCCN2CCOCC2)ccc1-n1cnnn1 | 17.5% |

| SMILES | hERG current change (%, negative = inhibition) at 10uM |
| --- | --- |
| CCN1C(=NCC(C)C)N[C@@H](c2cccc(C(F)(F)F)c2)C(C(=O)OC)=C1C | -23.9% |
| CC(C)COc1ccc(CNC(=S)NCc2ccccc2)cc1 | 7.8% |
| Cc1ccccc1C(=O)N1CCC(C(=O)O)CC1 | 2.25% |
| COc1ccc(C(C(=O)NC2CCCCC2)N(Cc2cccs2)C(=O)Cc2c[nH]c3ccccc23)cc1 (stereo not drawn) | -3.43% |
| CC(=O)c1ccc(S(=O)(=O)N2CCN(C)CC2)cc1 | 7.65% |
| CC(C)CCn1c(O)c(N=Nc2ccccn2)c2ccccc21 | -9.55% |
| COc1ccc(C(NC(=O)c2cccc(F)c2)c2ccccc2)cc1 (stereo not drawn) | 14.1% |
| c1ccc2c(C3=NNC(=NC4CC4)SC3)c[nH]c2c1 | -20.1% |
| Cc1cc(NS(=O)(=O)c2ccc(NC(=S)NC(=O)c3ccncc3)cc2)no1 | 5.68% |
| COC(=O)c1ccccc1NC(=O)C12CCC(C)(C(=O)O1)C2(C)C (stereo not drawn) | -2.05% |
| CC(CCc1ccccc1)NC(=O)c1ccccc1Cl (stereo not drawn) | -4.82% |
| C=CCOc1cccc(C2NC(=O)c3ccccc3O2)c1 (stereo not drawn) | 21.4% |
| C/C(=N\NC(=O)c1c(C)nc2ccccn12)c1ccco1 | -0.583% |
| O=C(NCc1ccco1)c1csc2c1CCCCC2 | 0.209% |
| O=C(CSc1nc(-c2ccco2)cc(C(F)(F)F)n1)NC1CCCC1 | -3.44% |
| O=C1OCCN1c1c(-c2ccccc2)c(N2CCOCC2)nc2ccccc12 | -25.8% |
| O=C(NNC1=NC2(CCCC2)Cc2ccccc21)c1ccncc1 | 4.98% |
| Cc1ccc(NC(=S)Nc2cccc3cnccc23)cc1C | 7.79% |
| CCNC(=O)CN(c1ccc(C)cc1)S(=O)(=O)c1ccccc1 | 7.75% |
| CCN(CC)S(=O)(=O)c1ccc(N2CCCC2)c(NS(=O)(=O)c2ccc([N+](=O)[O-])cc2)c1 | -7.41% |
| O=[n+]1cc(-c2ccccc2)n([O-])c2c1CCC2 | 14.5% |
